By IC50 is meant the dose at which the fit gives 50% viability; a limit (>, <) means that the fit lies beyond the doses tested. The AUC spans the tested range (256-fold, ending at the top dose) of the same fit: 1 means no effect, lower means more sensitive. An inferred top dose comes from the curve model; the source does not state it. For some assays here: Where an entry number is given, a second screen of the drug exists; the two often differ.
Legend:
Test in all cases: Viability of human cancer cell lines after 72 h of drug (GDSC screen)
[1] = compound: C/C=C(/C)C(=O)O[C@H]1C(C)=C2[C@H]([C@@H]1OC(=O)CCCCCCC)[C@@](C)(OC(C)=O)C[C@H](OC(=O)CCC)[C@@]1(O)[C@H]2OC(=O)[C@@]1(C)O [Thapsigargin]; conditions: top dose 0.512 µM; top dose inferred
Experimental: (§1)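 Human cancer cell lines in 384-well plates, medium with 10% serum, drug for 72 h over a 256-fold dose range (nine 2-fold or five 4-fold steps up to the top dose). Adherent lines were fixed and stained with the nucleic acid dye Syto60, suspension lines read with resazurin; signal relative to control wells, capped at 0 and 100%. One two-parameter sigmoid per drug and line, fitted in a mixed model over all curves with the slope shared within a line.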

[2] = compound: Cc1ccc(F)c(NC(=O)Nc2ccc(-c3cccc4[nH]nc(N)c34)cc2)c1 [ABT-869]; conditions: top dose 1.024 µM; top dose inferred
Experimental: as §1

[3] = compound: COc1cc2ncnc(-n3nc(-c4ccccn4)nc3N)c2cc1OC [CP466722]; conditions: top dose 16 µM; top dose inferred
Experimental: as §1

[4] = compound: Cc1cnc(-c2cnc(NCCNc3ccc(C#N)cn3)nc2-c2ccc(Cl)cc2Cl)[nH]1 [CHIR-99021]
Experimental: as §1

[5] = compound: COc1nc(C)cnc1NS(=O)(=O)c1cccnc1-c1ccc(-c2nnco2)cc1 [Zibotentan]; conditions: top dose 20 µM; top dose inferred
Experimental: as §1

[6] = compound: CCn1c(-c2nonc2N)nc2cnc(Oc3cccc(NC(=O)c4ccc(OCCN5CCOCC5)cc4)c3)cc21 [GSK269962A]; conditions: top dose inferred
Experimental: as §1

[7] = compound: COc1cc(O)c2c(c1)/C=C/C[C@H](O)[C@H](O)C(=O)/C=C\C[C@H](C)OC2=O [(5Z)-7-Oxozeaenol]; conditions: top dose 10 µM; top dose inferred
Experimental: as §1

[8] = compound: COc1cc(N2CCC(O)CC2)ccc1Nc1cc(Nc2ccccc2S(=O)(=O)C(C)C)c2cc[nH]c2n1 [MPS-1-IN-1]; conditions: top dose 20 µM; top dose inferred
Experimental: as §1

[9] = compound: C=CC(=O)Nc1cc(-n2c(=O)ccc3cnc4ccc(-c5cn[nH]c5)cc4c32)ccc1C [QL-X-138]; conditions: top dose 10.24 µM; top dose inferred
Experimental: as §1

[10] = top dose 2.56 µM, screen: GDSC drug entry 154
[11] = top dose 10 µM, screen: GDSC drug entry 1241, top dose inferred
[12] = top dose 5 µM, screen: GDSC drug entry 1192
[13] = top dose 2.5 µM, screen: GDSC drug entry 127

Cell Line	AUC [1]	IC50 [1]	AUC [2]	IC50 [2]	AUC [3]	IC50 [3]	AUC [4, 10]	IC50 [4, 10]	AUC [4, 11]	IC50 [4, 11]	AUC [5]	IC50 [5]	AUC [6, 12]	IC50 [6, 12]	AUC [7]	IC50 [7]	AUC [8]	IC50 [8]	AUC [9]	IC50 [9]	AUC [6, 13]	IC50 [6, 13]
HSC-3 (head and neck, adherent)	0.35	0.0132 µM	0.985	> 1.02 µM	0.95	> 16 µM	0.976	> 2.56 µM	0.981	> 10 µM	0.99	> 20 µM	0.342	0.122 µM	0.413	0.374 µM	0.977	> 20 µM	0.903	10.1 µM	–	–
HTC-C3 (thyroid, adherent)	0.407	0.0173 µM	0.975	> 1.02 µM	0.676	3.31 µM	0.98	> 2.56 µM	0.961	> 10 µM	0.983	> 20 µM	0.96	> 5 µM	0.27	0.127 µM	0.842	16.7 µM	0.728	3.12 µM	–	–
Hs940-T (melanoma, adherent)	0.163	0.00227 µM	0.982	> 1.02 µM	0.699	4.15 µM	0.798	1.53 µM	0.839	9.01 µM	0.984	> 20 µM	0.646	0.869 µM	0.789	5.5 µM	0.984	> 20 µM	0.638	1.68 µM	–	–
IM-95 (stomach, adherent)	0.202	0.00389 µM	0.972	> 1.02 µM	0.832	11.2 µM	0.956	> 2.56 µM	0.979	> 10 µM	0.984	> 20 µM	0.935	> 5 µM	0.972	> 10 µM	0.923	> 20 µM	0.76	3.84 µM	–	–
J82 (bladder, adherent)	0.277	0.0075 µM	0.978	> 1.02 µM	0.974	> 16 µM	0.976	> 2.56 µM	0.948	> 10 µM	0.987	> 20 µM	0.825	2.99 µM	0.632	1.44 µM	0.986	> 20 µM	0.899	> 10.2 µM	–	–
KP-4 (pancreas, adherent)	0.295	0.00873 µM	0.988	> 1.02 µM	0.877	14.9 µM	0.988	> 2.56 µM	0.985	> 10 µM	0.986	> 20 µM	0.72	1.28 µM	0.636	1.46 µM	0.98	> 20 µM	0.622	1.37 µM	–	–
KYSE-180 (oesophagus, adherent)	0.195	0.00419 µM	0.984	> 1.02 µM	0.877	14.8 µM	0.926	> 2.56 µM	0.984	> 10 µM	0.987	> 20 µM	0.861	3.93 µM	0.79	4.25 µM	0.728	5.38 µM	0.83	6.01 µM	–	–
KYSE-270 (oesophagus, adherent)	0.167	0.00386 µM	0.979	> 1.02 µM	0.897	14.7 µM	0.972	> 2.56 µM	0.964	> 10 µM	0.991	> 20 µM	0.922	> 5 µM	0.674	1.75 µM	0.877	15 µM	0.886	8.43 µM	–	–
LU-99A (large cell lung carcinoma, adherent)	0.194	0.00397 µM	0.984	> 1.02 µM	0.839	10.8 µM	0.987	> 2.56 µM	0.983	> 10 µM	0.986	> 20 µM	0.923	> 5 µM	0.581	1.04 µM	0.868	17.9 µM	0.918	> 10.2 µM	–	–
ML-1 (thyroid, adherent)	0.151	0.0021 µM	0.983	> 1.02 µM	0.757	6.39 µM	0.892	> 2.56 µM	0.977	> 10 µM	0.982	> 20 µM	0.944	> 5 µM	0.742	3.52 µM	0.963	> 20 µM	0.806	6.33 µM	–	–
NCI-H196 (small cell lung carcinoma, adherent)	0.846	0.399 µM	0.988	> 1.02 µM	0.82	9.72 µM	0.988	> 2.56 µM	0.987	> 10 µM	0.988	> 20 µM	0.961	> 5 µM	0.943	> 10 µM	0.9	> 20 µM	0.904	> 10.2 µM	–	–
NCI-H1299 (large cell lung carcinoma, adherent)	0.191	0.00297 µM	0.982	> 1.02 µM	0.818	11.8 µM	0.976	> 2.56 µM	0.972	> 10 µM	0.974	> 20 µM	0.962	> 5 µM	0.693	2.48 µM	0.922	> 20 µM	0.768	4.72 µM	0.979	> 2.5 µM
NCI-H1573 (lung adenocarcinoma, adherent)	0.899	> 0.512 µM	0.991	> 1.02 µM	0.883	> 16 µM	0.991	> 2.56 µM	0.98	> 10 µM	0.99	> 20 µM	0.973	> 5 µM	0.848	7.1 µM	0.987	> 20 µM	0.968	> 10.2 µM	–	–
NCI-H1793 (lung adenocarcinoma, adherent)	0.804	0.394 µM	0.982	> 1.02 µM	0.806	12.6 µM	0.979	> 2.56 µM	0.98	> 10 µM	0.982	> 20 µM	0.901	> 5 µM	0.979	> 10 µM	0.981	> 20 µM	0.809	8.26 µM	–	–
NCI-H1915 (large cell lung carcinoma, adherent)	0.18	0.0034 µM	0.981	> 1.02 µM	0.843	11.6 µM	0.949	> 2.56 µM	0.941	> 10 µM	0.986	> 20 µM	0.961	> 5 µM	0.744	3.17 µM	0.931	> 20 µM	0.824	6.22 µM	–	–
PCI-38 (head and neck, adherent)	0.815	0.283 µM	0.984	> 1.02 µM	0.946	> 16 µM	0.966	> 2.56 µM	0.871	9.53 µM	0.974	> 20 µM	0.825	3.03 µM	0.795	4.67 µM	0.895	> 20 µM	0.903	> 10.2 µM	–	–
PL18 (pancreas, adherent)	0.443	0.0224 µM	0.978	> 1.02 µM	0.953	> 16 µM	0.987	> 2.56 µM	0.974	> 10 µM	0.986	> 20 µM	0.987	> 5 µM	0.779	4.04 µM	0.976	> 20 µM	0.904	> 10.2 µM	–	–
RD (rhabdomyosarcoma, adherent)	0.285	–	0.985	> 1.02 µM	0.843	13 µM	0.982	> 2.56 µM	0.894	> 10 µM	0.978	> 20 µM	0.957	> 5 µM	0.42	0.369 µM	0.828	13.9 µM	0.53	0.781 µM	–	–
RT-112 (bladder, adherent)	0.223	0.0046 µM	0.959	> 1.02 µM	0.918	> 16 µM	0.915	> 2.56 µM	0.983	> 10 µM	0.985	> 20 µM	0.895	> 5 µM	0.558	0.911 µM	0.856	18.1 µM	0.694	2.35 µM	–	–
SN12C (kidney, adherent)	0.417	0.0184 µM	0.986	> 1.02 µM	0.935	> 16 µM	0.982	> 2.56 µM	0.965	> 10 µM	0.983	> 20 µM	0.936	> 5 µM	0.641	1.61 µM	0.986	> 20 µM	0.897	> 10.2 µM	–	–
SNU-398 (liver, adherent)	0.039	< 0.002 µM	0.985	> 1.02 µM	0.759	5.8 µM	0.937	> 2.56 µM	0.984	> 10 µM	0.978	> 20 µM	0.805	2.65 µM	0.684	2.1 µM	0.871	> 20 µM	0.433	0.416 µM	–	–
SW156 (kidney, adherent)	0.777	0.23 µM	0.976	> 1.02 µM	0.821	10.7 µM	0.983	> 2.56 µM	0.984	> 10 µM	0.984	> 20 µM	0.808	2.93 µM	0.767	4.11 µM	0.965	> 20 µM	0.902	> 10.2 µM	–	–
SW837 (large intestine, adherent)	0.252	0.00482 µM	0.981	> 1.02 µM	0.774	8.42 µM	0.969	> 2.56 µM	0.955	> 10 µM	0.983	> 20 µM	0.978	> 5 µM	0.745	4.04 µM	0.852	> 20 µM	0.847	> 10.2 µM	–	–
SW1088 (glioma, adherent)	0.652	0.0962 µM	0.977	> 1.02 µM	0.829	14.3 µM	0.978	> 2.56 µM	0.92	> 10 µM	0.979	> 20 µM	0.628	0.785 µM	0.788	5.87 µM	0.972	> 20 µM	0.878	> 10.2 µM	–	–
SW1463 (large intestine, adherent)	0.817	> 0.512 µM	0.973	> 1.02 µM	0.907	> 16 µM	0.969	> 2.56 µM	0.937	> 10 µM	0.973	> 20 µM	0.916	> 5 µM	0.801	> 10 µM	0.978	> 20 µM	0.779	7.95 µM	–	–
T-24 (bladder, adherent)	0.323	0.0105 µM	0.987	> 1.02 µM	0.847	10.9 µM	0.966	> 2.56 µM	0.913	> 10 µM	0.988	> 20 µM	0.82	2.71 µM	0.642	1.51 µM	0.945	> 20 µM	0.823	5.7 µM	–	–

— the supplement of paper PMC4967469
